Measurements: PubChem BioAssay AID504333 (National Center for Advancing Translational Sciences (NCATS), 2011)
Hit rate of the full screen: of about 360,000 compounds, about 16,000 (4.4%) were called active. The shares of active, inactive and inconclusive entries below differ from those in the screen. Calls follow the shape of the dose curve; as a rule, active = well fitted inhibition curve with a large enough effect; inconclusive = small, poorly fitted or top-dose-only effect; inactive = no such curve, though single readings can be large or run the other way. Where the call is inconclusive, the potency comes from a doubtful curve fit.

Molecular target: Bromodomain adjacent to zinc finger domain protein 2B (Homo sapiens) (UniProt Q9UIF8)
Experiment: qHTS Assay for Inhibitors of BAZ2B; also: nearly all actives have a fitted effect of over 60% in size
Settings: AlphaScreen BAZ2B-H3K14Ac peptide displacement; activity change, negative = inhibition: at 114 µM (top of the series) unless noted
Procedure, shortened: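 BAZ2B 50 nM plus b-H3(5-23)K14Ac 50 nM, PBS pH 7.4/0.01% Tween-20, 30 min RT; compound added (max 110 uM), 30 min RT; streptavidin donor/Ni-chelate acceptor beads 10 ug/mL final, 20 min dark; AlphaScreen read.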
% is scaled to controls: 0 for no effect and ±100 for the full control effect; potency is read from the fitted curve at half-maximal effect; tags tell the direction and shape of the fitted curve.

UniProt Q9UIF8, sequence (Q9UIF8 whole entry, looked up, the tested form may be a part): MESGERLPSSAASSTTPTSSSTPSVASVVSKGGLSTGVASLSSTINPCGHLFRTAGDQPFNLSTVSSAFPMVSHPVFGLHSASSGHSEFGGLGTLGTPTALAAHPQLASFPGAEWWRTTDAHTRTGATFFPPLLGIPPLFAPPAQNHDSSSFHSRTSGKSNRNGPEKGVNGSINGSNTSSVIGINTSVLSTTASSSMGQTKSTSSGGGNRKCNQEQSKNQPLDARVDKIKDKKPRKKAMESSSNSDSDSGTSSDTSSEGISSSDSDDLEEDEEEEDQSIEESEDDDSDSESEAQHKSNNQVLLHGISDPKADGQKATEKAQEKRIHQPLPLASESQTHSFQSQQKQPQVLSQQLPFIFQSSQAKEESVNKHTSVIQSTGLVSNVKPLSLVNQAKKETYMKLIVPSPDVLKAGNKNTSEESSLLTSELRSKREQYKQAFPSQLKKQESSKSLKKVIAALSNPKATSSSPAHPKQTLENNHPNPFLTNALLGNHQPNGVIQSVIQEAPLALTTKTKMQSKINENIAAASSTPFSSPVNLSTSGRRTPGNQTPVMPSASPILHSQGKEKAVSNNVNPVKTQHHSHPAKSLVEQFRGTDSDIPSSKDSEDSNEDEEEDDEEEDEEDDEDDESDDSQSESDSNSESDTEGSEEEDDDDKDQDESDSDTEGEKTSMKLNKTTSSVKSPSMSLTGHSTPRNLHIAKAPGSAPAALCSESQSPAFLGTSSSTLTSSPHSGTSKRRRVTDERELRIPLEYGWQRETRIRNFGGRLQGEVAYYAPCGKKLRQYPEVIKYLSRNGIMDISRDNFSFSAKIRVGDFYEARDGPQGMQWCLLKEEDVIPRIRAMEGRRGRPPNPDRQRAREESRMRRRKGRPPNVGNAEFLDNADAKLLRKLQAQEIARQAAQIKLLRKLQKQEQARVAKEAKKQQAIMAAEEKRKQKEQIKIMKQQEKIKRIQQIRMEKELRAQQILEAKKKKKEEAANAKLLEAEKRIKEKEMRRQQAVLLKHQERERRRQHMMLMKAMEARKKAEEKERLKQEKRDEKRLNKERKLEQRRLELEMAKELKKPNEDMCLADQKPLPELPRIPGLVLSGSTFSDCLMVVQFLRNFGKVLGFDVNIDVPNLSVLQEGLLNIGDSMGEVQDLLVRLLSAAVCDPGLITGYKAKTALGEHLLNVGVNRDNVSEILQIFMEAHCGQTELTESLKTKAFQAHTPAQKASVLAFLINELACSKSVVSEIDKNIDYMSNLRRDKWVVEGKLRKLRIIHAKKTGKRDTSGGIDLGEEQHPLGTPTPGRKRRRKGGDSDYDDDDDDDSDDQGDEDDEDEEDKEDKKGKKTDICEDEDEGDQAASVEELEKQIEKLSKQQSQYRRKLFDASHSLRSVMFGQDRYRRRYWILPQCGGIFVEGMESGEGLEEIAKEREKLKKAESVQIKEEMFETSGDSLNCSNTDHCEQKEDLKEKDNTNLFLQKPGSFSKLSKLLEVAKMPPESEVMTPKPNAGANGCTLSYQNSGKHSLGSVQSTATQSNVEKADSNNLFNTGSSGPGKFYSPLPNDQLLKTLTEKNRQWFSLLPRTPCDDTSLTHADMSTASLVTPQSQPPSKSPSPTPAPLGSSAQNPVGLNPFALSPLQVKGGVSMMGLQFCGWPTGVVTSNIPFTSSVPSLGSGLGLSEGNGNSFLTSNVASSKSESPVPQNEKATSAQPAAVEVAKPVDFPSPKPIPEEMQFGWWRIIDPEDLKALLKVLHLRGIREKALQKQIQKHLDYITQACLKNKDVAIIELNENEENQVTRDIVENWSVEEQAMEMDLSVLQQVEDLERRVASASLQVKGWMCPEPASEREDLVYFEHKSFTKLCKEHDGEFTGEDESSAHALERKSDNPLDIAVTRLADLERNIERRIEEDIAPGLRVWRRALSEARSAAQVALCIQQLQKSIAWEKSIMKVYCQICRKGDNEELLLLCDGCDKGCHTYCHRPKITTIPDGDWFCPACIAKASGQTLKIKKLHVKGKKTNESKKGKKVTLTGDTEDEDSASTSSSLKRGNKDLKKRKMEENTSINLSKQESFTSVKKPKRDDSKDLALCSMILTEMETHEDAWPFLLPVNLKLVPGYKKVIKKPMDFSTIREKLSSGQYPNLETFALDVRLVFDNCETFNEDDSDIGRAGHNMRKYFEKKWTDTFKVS

SMILES | Potency | activity change, negative = inhibition
Cc1nc2ccccn2c1-c1csc(Nc2ccc(C(=O)O)cc2)n1 | inconclusive: 50.1 µM [inhibitor, partial curve] | 
Cc1cc(/C=C/C(=O)O)c(C)n1-c1ccc(Cl)cc1 | inconclusive: 39.8 µM [inhibitor, partial curve] | 
Oc1cccc(/C=N/Nc2cc(N3CCOCC3)nc(N3CCOCC3)n2)c1 | inconclusive: 79.4 µM [inhibitor, single point] | 
O=C(NCc1ccco1)c1cc2ccccc2c(=O)o1 | inconclusive: 89.1 µM [inhibitor, single point] | 
O=C(CSc1ncccc1-c1nc2ccccc2[nH]1)NC1CC1 |  | inactive: 6.27%
CCn1c(SCC(=O)c2cc(C)n(-c3ccc(C(=O)OC)cc3)c2C)nnc1-c1cccnc1 | inconclusive: 89.1 µM [inhibitor, single point] | 
CCCCCCSC1=C(C#N)C(=O)NC2(CCCCC2)S1 | inconclusive: 44.7 µM [inhibitor, partial curve] | 
Cn1cccc1CC(=O)N/N=C/c1cccc([N+](=O)[O-])c1 | inconclusive: 44.7 µM [inhibitor, partial curve] | 
COC(=O)c1[nH]c2cc(C)ccc2c1NC(=O)CN1CCN(C(=O)c2ccco2)CC1 | inconclusive: 89.1 µM [inhibitor, single point] | 
CCCCOc1ccc(CNC(=O)CN2CCSc3ccccc32)cc1 | inconclusive: 31.6 µM [inhibitor, partial curve] | 
O=C1c2[nH]nc(-c3ccccc3O)c2C(c2ccccc2)N1Cc1ccco1 (configuration not stated) | inconclusive: 44.7 µM [inhibitor, partial curve] | 
CC(=O)c1c(C)nc(-c2ccc(OCC(=O)Nc3cccc(C)c3C)cc2)n1O | inconclusive: 89.1 µM [inhibitor, single point] | 
COc1cccc(C(=O)NC2(C(F)(F)F)C(=O)Nc3c2c(=O)[nH]c(=O)n3-c2ccc(C)cc2)c1 (configuration not stated) |  | inactive: 1.43%
COc1cc(CN(C(=O)c2ccco2)c2ccc(C)cc2)ccc1O | inconclusive: 89.1 µM [inhibitor, single point] | 
O=C(CCCCCn1c(=O)c2sccc2n(CC(=O)Nc2cccc(Cl)c2)c1=O)NCc1ccc2c(c1)OCO2 | inconclusive: 89.1 µM [inhibitor, single point] | 
COc1cccc(NC(=O)C2C3C=CC4(O3)C2C(=O)N(CCCN2CCCCC2)C4C(=O)NC2CCCCC2)c1 (configuration not stated) | inconclusive: 89.1 µM [inhibitor, single point] | 
Cc1oc(S(=O)(=O)N2CCCCC2)cc1NC(=O)Nc1ccc(F)cc1 |  | inactive: 14.5%
COc1cccc(CNc2ccc3c(c2)CCC3)c1 | inconclusive: 89.1 µM [inhibitor, single point] | 
Cc1ccc(NC(=O)c2nn(C)c3c2CS(=O)(=O)c2ccccc2-3)c(Cl)c1 | inconclusive: 89.1 µM [inhibitor, single point] | 
Cc1cccc(Nc2nc(N)c([N+](=O)[O-])c(N3CCOCC3)n2)c1 | inconclusive: 44.7 µM [inhibitor, partial curve] | 
COc1ccc(NC(=O)c2cn(CC(C)C)c(=O)c3cc(OC)c(OC)cc23)cc1Cl |  | inactive: 0.806%
COC(=O)C1=C(C(=O)OC)C(c2ccccc2O)c2sc(=O)[nH]c2S1 (configuration not stated) | inconclusive: 89.1 µM [inhibitor, single point] | 
Cc1c(C(=O)OCC(=O)NCc2ccco2)cccc1[N+](=O)[O-] | active: 50.1 µM | 
CCn1ccnc1[C@@H]1C[C@H]2CN(Cc3cccc(Cl)c3)C(=O)[C@]23CCCN13 |  | inactive: -2.8%

SMILES | Potency | activity change, negative = inhibition
Nc1cc(-c2ccc(Cl)cc2)nn1S(=O)(=O)c1cccc2nsnc12 | inconclusive: 39.8 µM [inhibitor, full curve] | 
O=C(CNCCC1=CCCCC1)Nc1ccccc1N1CCCCC1 | active: 50.1 µM | 
Cc1ccc(NC(=O)NCc2ccc3c(c2)CCN3C(=O)c2ccccc2)c(Cl)c1 |  | inactive: 0.145%
CC(C)Cc1nc2ccccc2[nH]1 |  | inactive: -1.89%
C=CCN1C(=O)CN=C1Nc1ccc(OC)cc1OC | inconclusive: 89.1 µM [inhibitor, single point] | 
Oc1ccc(N=Cc2ccc(-c3cccs3)s2)cc1 | inconclusive: 39.8 µM [inhibitor, full curve, poor fit] | 
COc1ccc(NC(=O)CSc2nc3c(sc4ccccc43)c(=O)n2CCCN2CCCC2)cc1 |  | inactive: -20.4%
O=C(c1ccco1)N1N=C(c2ccc(Cl)cc2)CC1c1ccco1 (configuration not stated) | inconclusive: 17.8 µM [inhibitor, full curve] | 
Cc1ccc2c(c1)C(=O)C(=O)N2CC1COc2ccccc2O1 (configuration not stated) | inconclusive: 44.7 µM [inhibitor, partial curve] | 
COc1ccc(C(=O)C[N+]2(C)CCOCC2)cc1 | inconclusive: 6.31 µM [inhibitor, single point] | 
O=c1[nH]c2ccc(S(=O)(=O)Nc3ccc(Cl)cc3)cc2[nH]1 |  | inactive: 7.38%
COC1=Cc2c(ccc3ccc(=O)oc23)OC1(C)C | inconclusive: 3.55 µM [inhibitor, full curve, poor fit] | 
COc1ccc(N(C(=O)/C=C\C(=O)Nc2ccc(Cl)cc2)C(C(=O)NCc2ccco2)c2ccc(C)cc2)cc1 (configuration not stated) | inconclusive: 22.4 µM [inhibitor, full curve] | 
Cc1ccccc1NC(=S)c1nc2ccccc2[nH]1 | active: 11.2 µM | 
CN(C)S(=O)(=O)c1cccc(NC(=S)N/N=C/C(=O)c2ccccc2)c1 | inconclusive: 56.2 µM [inhibitor, single point] | 
COc1cccc(-n2c(SCC(=O)Nc3cc(C)ccc3C)nc3c(oc4ccccc43)c2=O)c1 |  | inactive: 4.26%
COc1cccc(CNC(=O)COC(=O)c2c(C)nn(-c3ccccc3)c2Cl)c1 | inconclusive: 79.4 µM [inhibitor, single point] | 
CC(C)(C)c1ccc(OCCC(=O)OCC(=O)NC2CCCCC2)cc1 |  | inactive: 6.84%
CC1(C(=O)NNC(=O)c2cccc([N+](=O)[O-])c2)CC1(Br)Br (configuration not stated) |  | inactive: -35.1%
Cc1cc(C)c(/C([O-])=C(/C(=S)Nc2ccc(SC(F)F)cc2)[n+]2ccccc2)cc1C | active: 22.4 µM | 
CCCCC(=O)Nc1nnc(C2=COCCO2)o1 | inconclusive: 56.2 µM [inhibitor, partial curve] | 
Cc1cc(=O)n2[nH]c(-c3sccc3-n3c(C)ccc3C)cc2n1 | active: 50.1 µM | 
C[C@H](NC(=O)c1cc2c([nH]c3ccccc32)c(-c2ccccc2)n1)C(=O)O | inconclusive: 79.4 µM [inhibitor, single point] | 
Cc1ccc(C(C(=O)NCCc2ccccc2)N(C(=O)c2csnn2)C2CC2)cc1 (configuration not stated) | inconclusive: 89.1 µM [inhibitor, single point] | 

SMILES | Potency | activity change, negative = inhibition
c1ccc(CNc2nc(N3CCN(Cc4ccccc4)CC3)nc3ccccc23)cc1 | active: 50.1 µM | 
O=C1C2CCCN2C(c2ccccc2)N1c1nccs1 (configuration not stated) | inconclusive: 56.2 µM [inhibitor, single point] | 
O=C(CN1C(=O)NC2(CCCC2)C1=O)Nc1nc2ccccc2[nH]1 | inconclusive: 89.1 µM [inhibitor, single point] | 
O=[N+]([O-])c1ccc(P(=O)(Cc2ccccc2)c2ccccc2O)cc1 (configuration not stated) | inconclusive: 79.4 µM [inhibitor, single point] | 
COc1cccc(CN(C)C(=O)CSCC(=O)Nc2cc(C)on2)c1OC |  | inactive: -1.34%
N=c1c2c(-c3ccccc3)c(-c3ccccc3)n(Cc3ccco3)c2ncn1CCCO | inconclusive: 50.1 µM [inhibitor, partial curve] | 
COc1cc(OC)c(OC)cc1CN1CCN(C(=O)CC(C)C)CC1 | inconclusive: 89.1 µM [inhibitor, single point] | 
COc1ccc(-c2nn3c(-c4ccccn4)nnc3s2)cc1OC | active: 44.7 µM | 
Cc1cc2nc(-c3ccc(SCC(=O)N4CCOCC4)nc3)[nH]c2cc1C |  | inactive: -13.3%
O=C(Nc1ccc(Cl)c(C(F)(F)F)c1)NC1CC2CCCC(C1)N2Cc1ccccc1 (configuration not stated) |  | inactive: -26.4%
COc1cccc(OC)c1C(=O)NC(=S)NCc1cccnc1 |  | inactive: -4.8%
CCC(NC(=O)C1CCCO1)c1ccccc1 (configuration not stated) |  | inactive: 2.36%
O=C(Oc1cccc([N+](=O)[O-])c1)c1ccc2c(=O)n3c(nc2c1)CCC3 | active: 50.1 µM | 
O=C(O)CCc1ccc(-c2cccs2)n1NC(=O)c1ccco1 |  | inactive: -33.1%
O=C1C2C3C=CC(CC3)C2C(=O)N1c1nccs1 (configuration not stated) | active: 44.7 µM | 
O=C(COc1ccc(Cl)cc1[N+](=O)[O-])NC1CCCCC1 | inconclusive: 50.1 µM [inhibitor, partial curve] | 
CCc1sc(N)nc1-c1ccccc1 | inconclusive: 79.4 µM [inhibitor, single point] | 
CCC(=O)NC(c1cccs1)c1ccc2cccnc2c1O (configuration not stated) | active: 25.1 µM | 
O=C(Cc1ccccc1)Nc1ccc(N2CCCC2)cc1 | inconclusive: 70.8 µM [inhibitor, single point] | 
c1ccc2c(-c3cn4ccccc4n3)c[nH]c2c1 | inconclusive: 70.8 µM [inhibitor, single point] | 
CCCc1[nH]nc2c1C(c1ccsc1)C(C#N)=C(N)O2 (configuration not stated) | inconclusive: 79.4 µM [inhibitor, single point] | 
COC(=O)[C@H](CCSC)NC(=O)[C@@H](Cc1cnc[nH]1)NC(=O)OCc1ccccc1 |  | inactive: -20.7%
Cn1c(=O)c2c(-c3ccccc3)n3c(c2n(C)c1=O)C(c1ccccc1[N+](=O)[O-])Nc1ccccc1-3 (configuration not stated) |  | inactive: -4.48%
CCOC(=O)C1CCCN(c2c(C(=O)c3ccccc3)cnc3ccc(OC)cc23)C1 (configuration not stated) | inconclusive: 31.6 µM [inhibitor, partial curve, poor fit] | 
